# Assay results as given in PubChem BioAssay AID463173 (ICCB-Longwood Screening Facility, Harvard Medical School, 2010).
# About 1,700 (3.3%) of roughly 52,000 compounds were called active. Cut-off read from the data, not from the text of the source: active = survival mostly below about 52% (no sharp cut-off); inactive = mostly above about 56%. The list shows a part of the results.
# System: Wild type
# Assay: S. aureus survival, RN4220 and DeltatarO strains – OD600, teichoic acid synthesis inhibitors, primary screen (AID 463173)
# Conditions: S. aureus RN4220 wild type/DeltatarO growth, OD600, 18 h, stronger effect = lower value, screened at 18.75 µg/mL (by protocol)
row,Compound,survival
1,O=C(NCc1ccc(F)cc1)C(=O)NCC(c1ccco1)S(=O)(=O)c1cccs1 (stereo not drawn),active: 0%
2,Cc1ccc(-c2nnc(Nc3cccc(Br)c3)c3ccccc23)cc1S(=O)(=O)NCC1CCCO1 (stereo not drawn),inactive: 87%
3,O=C(c1ccc2c(c1)N(Cc1ccc(Cl)cc1)C(=O)c1ccccc1S2(=O)=O)N1CCc2ccccc21,inactive: 147%
4,CCC(C(=O)Nc1cccc(C#N)c1)n1nc(-c2ccccc2)ccc1=O (stereo not drawn),inactive: 79%
5,Cc1ccc(NC(=O)CCCn2nc(C)c3sc4ccccc4c3c2=O)c(Cl)c1,inactive: 85%
6,COC(=O)c1ccccc1NC(=O)CSc1nnc2cc(C)c3cc(C)cc(C)c3n12,inactive: 72%
7,CCN1c2ccccc2-c2nc(SCC(=O)Nc3cc(F)ccc3F)ncc2S1(=O)=O,inactive: 128%
8,COc1ccc(Cl)cc1S(=O)(=O)N1CCCC1,inactive: 101%
9,CCCc1ccc(-c2ccc(/C=C/C(=O)O)cc2)nc1,inactive: 114%
10,O=C(Cn1ccc2cc(S(=O)(=O)N3CCCC3)ccc21)NCc1ccccc1Cl,inactive: 65%
11,CCOc1ccc(C2C(=O)N(C3CCCCCC3)CC(=O)N2CCc2ccc(Cl)cc2)cc1OC (stereo not drawn),inactive: 83%
12,Cc1nnc(NCc2ccc(F)cc2)c2c1nnn2Cc1ccccc1Cl,inactive: 94%
13,CCOc1ccc(NC(=O)CCn2nc(C)c(S(=O)(=O)N3CCCCC3)c2C)cc1,inactive: 134%
14,O=c1c2ccccc2c2nc3c(=O)c4ccccc4c3nc12,inactive: 127%
15,COc1ccc(OC)c(NC(=O)CSC2=Nc3ccccc3C3=NC(CCC(=O)NCCc4ccccc4)C(=O)N23)c1 (stereo not drawn),inactive: 73%
16,O=C(NCCC1=CCCCC1)c1ccc2c(c1)N(Cc1ccc(Cl)cc1)C(=O)c1ccccc1S2(=O)=O,inactive: 104%
17,CCc1ccc(N2C(=O)N(CC(=O)C(C)(C)C)c3ccccc3S2(=O)=O)cc1,inactive: 71%
18,COc1ccccc1N1CCN(S(=O)(=O)c2c(C)sc3ncn(CC(=O)NCCN(C)C)c(=O)c23)CC1,inactive: 85%
19,COc1ccc(NC(=O)CC2C(=O)N(c3ccc(C)cc3)C(=O)N2Cc2ccc(C)cc2)cc1 (stereo not drawn),inactive: 82%
20,Cc1c(Cl)cccc1NC(=O)Cn1cnc(S(=O)(=O)N2CCCC2)c1,inactive: 72%
21,COc1ccc(CCNC(=O)Cn2nc(C)c3c(C)n(-c4ccc(C)cc4)nc3c2=O)c(OC)c1,inactive: 68%
22,O=c1c2ccccc2nc(N2CCN(c3cccc(Cl)c3)CC2)n1-c1ccccc1,inactive: 81%

row,Compound,survival
1,CCN(CC)CCCNC(=O)c1nn(-c2ccc(OC)cc2)c(=O)c2c1c1ccccc1n2C,inactive: 71%
2,Nc1ccc(S(=O)(=O)NC2(C(F)(F)F)NC(=O)N(c3cccc(Cl)c3)C2=O)cc1 (stereo not drawn),inactive: 153%
3,CCC(C(=O)N1CCN(c2ccc(OC)cc2)CC1)n1nc(C)n2c(cc3occc32)c1=O (stereo not drawn),inactive: 123%
4,CCC(=O)Nc1ccccc1N1CCN(c2ccc(F)cc2)CC1,inactive: 106%
5,COc1ccc(Nc2c3c(nc4nncn24)CCC3)cc1Cl,inactive: 97%
6,CCOC(=O)c1noc2ncnc(Nc3cccc(C(F)(F)F)c3)c12,inactive: 73%
7,CCc1ccc(NC(=O)CSc2nnc(C(C)C)n2CC)cc1,inactive: 98%
8,COC(=O)c1cccc(CN2C(=O)SC(Nc3ccc(Cl)cc3)C2=O)c1 (stereo not drawn),inactive: 59%
9,CCCc1cc(=O)[nH]c(Nc2ccc(C)c(O)c2)n1,inactive: 84%
10,CCCCOc1ccc(C(=O)Nc2nc3c(s2)CC(C)CC3)cc1 (stereo not drawn),inactive: 88%
11,CC(=O)Nc1ccc(NC(=O)CCc2c(C)nc3c(c(C)nn3-c3ccccc3)c2C)cc1,inactive: 135%
12,COCCNC(=O)c1ccc2c(c1)N(Cc1c(F)cccc1Cl)C(=O)c1ccccc1S2,inactive: 90%
13,CCOC(=O)c1c(C)oc2nc(C)nc(NCc3ccc(OC)cc3)c12,inactive: 69%
14,O=C(Nc1ccccc1C(F)(F)F)N1CCC2(CC1)Oc1ccccc1C(=O)N2Cc1ccccc1F,inactive: 71%
15,CC(C)(Oc1ccc(Cl)cc1)C(=O)Nc1nnc2n1CCS2,inactive: 71%
16,Cc1cnc2c(c1SCC(=O)NCc1ccccc1Cl)c(=O)n(C)c(=O)n2C,inactive: 129%
17,CCCCNC(=O)CC1N=C2c3ccccc3N=C(SCC(=O)NCc3ccccc3Cl)N2C1=O (stereo not drawn),inactive: 78%
18,COc1cccc(C(=O)Nc2cccc(OCc3cc(=O)n4cccc(C)c4n3)c2)c1,inactive: 134%
19,Cc1ccc(NC(=O)CCC(=O)N2CCSc3ccccc32)cc1,inactive: 93%
20,Cc1ccc(OCC(=O)Nc2ccc(S(=O)(=O)N3CCOCC3)cc2)c(C)c1,inactive: 120%
21,O=C1NC(=O)C(=Cc2ccc(N3CCCC3)cc2)C(=O)N1,inactive: 106%
22,Cc1ccc(C)c(N2CCN(C(=O)c3nn(C)c4c3CS(=O)(=O)c3ccccc3-4)CC2)c1,inactive: 73%

row,Compound,survival
1,COC(=O)c1ccc(NC(=O)CC2C(=O)N(c3ccc(C)cc3)C(=O)N2Cc2ccc(OC)cc2)cc1 (stereo not drawn),inactive: 70%
2,Clc1ccc(-c2noc(-c3cccnc3N3CCN(c4ccccc4)CC3)n2)cc1,inactive: 78%
3,O=C(COc1ccccc1)Nc1nnc(SCc2cc(=O)c3ccccc3[nH]2)s1,inactive: 73%
4,CCc1ccccc1Nc1cc(C(=O)NCCCN(C)C2CCCCC2)c2ccccc2n1,inactive: 93%
5,CCOc1ccc(NC(=O)Cn2cc(C(=O)c3ccccc3)c(=O)c3cc4c(cc32)OCCO4)cc1,inactive: 81%
6,Cc1ccn2c(Nc3ccccc3C)c(-c3cccnc3)nc2c1,inactive: 71%
7,Nc1c(C(=O)C2CC2)oc2ccccc12,inactive: 107%
8,Fc1ccc(Nc2c(-c3ccco3)nc3ccccn23)cc1,inactive: 69%
9,Cn1c(=O)c(=O)n(C)c2cc(S(=O)(=O)Nc3ccc(Cl)c(C(F)(F)F)c3)ccc21,inactive: 69%
10,CCOc1ccc(CCNC(=O)C2CCN(Cc3nc(-c4ccccc4C)oc3C)CC2)cc1OCC,inactive: 81%
11,CCOC(=O)c1cc2sccc2n1CC(=O)NC1CCC(C)CC1 (stereo not drawn),inactive: 101%
12,O=C(CC(NCc1cccnc1)C(=O)O)Nc1ccc(O)cc1 (stereo not drawn),inactive: 68%
13,CCN(C(=O)CSc1nc2ccccc2n1CC(=O)N1CCCC(C)C1)c1ccccc1 (stereo not drawn),inactive: 120%
14,Cc1ccc(C2c3[nH]c4ccccc4c3CCN2C(=O)CCc2ccccc2)cc1 (stereo not drawn),inactive: 72%
15,N#C/C(=C/C=C/c1ccco1)c1nc2ccccc2[nH]1,inactive: 113%
16,C=CCSc1nnc(Cn2cnc3ccccc32)n1C,inactive: 102%
17,CCOc1ccc(CNC(=O)Cc2ccc(NC(=O)N3CCCCc4ccccc43)cc2)cc1OC,inactive: 77%
18,CC(C)(C)c1ccc(C(=O)N2CCN(Cc3cc(=O)n4nc(-c5ccccc5F)sc4n3)CC2)cc1,inactive: 74%
19,Cc1ccc(NC(=O)C2CCC(CNS(=O)(=O)c3ccc4c(c3)C(C)(C)C(=O)N4C)CC2)cc1 (stereo not drawn),inactive: 94%
20,Cc1cc(=O)oc2cc(OCC(=O)Nc3c(C(C)C)cccc3C(C)C)ccc12,inactive: 81%
21,Clc1ccc(-c2nnn3c2nc(NCc2ccc4c(c2)OCO4)c2ccccc23)cc1,inactive: 94%
22,O=C(CSc1nc(-c2ccccc2)cc(C(F)(F)F)n1)NCCN1CCOCC1,inactive: 102%

row,Compound,survival
1,COc1cc(OC)c(NC(=O)Cn2cnc3nc4c(cc3c2=O)CCCC4)cc1Cl,active: -6%
2,Cc1cc(C)c(NC(=O)Nc2csc3c2CCCC3)c(C)c1,inactive: 80%
3,COc1cc(NC(=O)CCNC(=O)Cn2cnc3ccccc3c2=O)cc(OC)c1OC,inactive: 66%
4,COc1ccc(CCn2c(=O)c3cccnc3n(CC(=O)Nc3c(C)cc(C)cc3C)c2=O)cc1OC,inactive: 85%
5,CCCc1cc(N2CCN(c3ccc(OC)cc3)CC2)n2cnnc2n1,inactive: 81%
6,Cc1ccc2nc3sc(C#N)c(N)c3cc2c1,inactive: 103%
7,O=C(CCCCCn1c(=O)[nH]c2ccccc2c1=O)NCc1ccc(Cl)cc1,inactive: 80%
8,CCC(=O)N1CCc2cc(Br)cc(S(=O)(=O)NCc3ccccc3)c21,inactive: 85%
9,CSc1ccc(CCNC(=O)C2CCN(c3ncnc4c3nc3n4CCCCC3)CC2)cc1,inactive: 71%
10,COc1ccccc1-c1nc(SCC(=O)Nc2ccc(C)c(C)c2)n[nH]1,inactive: 45%
11,Fc1ccc(-n2ncc3c(N4CCN(c5ccccc5F)CC4)ncnc32)cc1,inactive: 117%
12,CCN(CC)C(=O)COc1ccc(-c2nnc(Nc3ccc(OC)c(C(=O)NC)c3)c3ccccc23)cc1,inactive: 81%
13,Cc1sc2ncn(CC(=O)N(C)c3cccc(C(F)(F)F)c3)c(=O)c2c1S(=O)(=O)N1CCN(c2ncccn2)CC1,inactive: 148%
14,Cc1cc(=O)oc2c3c(ccc12)OCN(Cc1ccc(Cl)cc1)C3,inactive: 65%
15,CCn1nc(C)c2c(-c3ccccc3)cc(=O)n(C(C)C(=O)NCCc3ccccc3)c21 (stereo not drawn),inactive: 73%
16,CCc1nn2c(=O)cc(COC(=O)c3ccccc3NC(=O)c3cccs3)nc2s1,inactive: 82%
17,O=C(CCn1ccc2cc(S(=O)(=O)N3CCCC3)ccc21)NCc1ccccc1Cl,active: 14%
18,O=C(NCCc1ccc(Cl)cc1)c1ccc2c(c1)N(Cc1cccc(Cl)c1)C(=O)c1ccccc1S2(=O)=O,inactive: 121%
19,Fc1ccccc1Nc1ncnc2c1nc1n2CCCCC1,inactive: 74%
20,Cc1cccc(CCNC(=O)c2c[nH]c3ccc(S(=O)(=O)Nc4ccccc4F)cc3c2=O)c1,inactive: 138%
21,COc1ccc(CNC(=O)C(OC(=O)c2ccc(Cl)nc2)c2ccccn2)cc1 (stereo not drawn),inactive: 107%
22,COc1cccc(-c2nnc3sc(CN4CCCCC4)cn23)c1,inactive: 68%
